# In the supplement of paper PMC8285479:
# Where a name gives a salt, the structure may show the parent alone. ± gives the standard deviation of the averaged measurements. Over roughly 1,900 compounds, “normalised cell viability (NPI; 0 = phenylarsine oxide control, 1 = DMSO control)” has its median near 1; the lowest 2% begin near 0.039. This is one part of the list.
# System: NCI-H1944
# Experiment: normalised cell viability (NPI; 0 = phenylarsine oxide control, 1 = DMSO control) (fraction of DMSO control); NCI-H1944 is a non-small cell lung cancer line; higher = more viable cells (less compound toxicity)
# Conditions: 6 days
# [1] = glucocorticoid arm: hydrocortisone 2.75 uM co-treatment, compound 1 µM
# [2] = glucocorticoid arm: hydrocortisone 2.75 uM co-treatment, compound 5 µM
# [3] = glucocorticoid arm: hydrocortisone 2.75 uM pre-treated 2 days and continued, compound 1 µM
# [4] = glucocorticoid arm: hydrocortisone 2.75 uM pre-treated 2 days and continued, compound 5 µM
# [5] = glucocorticoid arm: vehicle, compound 1 µM
# [6] = glucocorticoid arm: vehicle, compound 5 µM
# 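Further: CTB read-out in 384-well plates, mean of triplicate wells, normalised per plate against 1 µM phenylarsine oxide and 0.1% DMSO, compounds added 24 h after seeding.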
SMILES,normalised cell viability [1],normalised cell viability [2],normalised cell viability [3],normalised cell viability [4],normalised cell viability [5],normalised cell viability [6]
COc1cc(N2CCC(N)CC2)ccc1Nc1ncc(Cl)c(-c2c[nH]c3ccccc23)n1,0.381 ± 0.011,0.326 ± 0.0099,0.421 ± 0.052,0.33 ± 0.02,0.637 ± 0.031,0.135 ± 0.019
O=C1CN(/N=C/c2ccc(-c3ccc([N+](=O)[O-])cc3)o2)C(=O)N1 [Dantrolene sodium],0.993 ± 0.013,0.979 ± 0.019,0.998 ± 0.011,0.969 ± 0.0017,0.97 ± 0.001,0.9637 ± 0.0045
Oc1ccc(Cn2cc[nH]c2=S)cc1 [1-(4-Hydroxybenzyl)imidazole-2-thiol],0.98 ± 0.018,0.972 ± 0.016,0.982 ± 0.013,0.968 ± 0.021,0.976 ± 0.0036,0.9733 ± 0.0031
NCCCCCNCC12CC3CC(CC(C3)C1)C2 [IEM 1754 dihydrobroMide],1.03 ± 0.021,1.05 ± 0.025,1.03 ± 0.01,1.03 ± 0.015,1.003 ± 0.0058,1.013 ± 0.0058
O=C(O)c1ccc2c(c1)nc(Nc1cccc(Cl)c1)c1ccncc12,0.993 ± 0.022,0.965 ± 0.018,1.02 ± 0.01,0.953 ± 0.013,1 ± 0.016,0.994 ± 0.02
COc1ccccc1N1CCN(CCN(C(=O)c2ccc(F)cc2)c2ccccn2)CC1 [p-MPPF dihydrochloride],0.9777 ± 0.0038,0.935 ± 0.001,0.987 ± 0.01,1.01 ± 0.071,0.9773 ± 0.004,0.9837 ± 0.0057
"c1ccc(-c2ccccn2)nc1 [2,2'-Bipyridyl]",1.002 ± 0.0076,1.01 ± 0.01,1 ± 0.011,1.02 ± 0.018,0.993 ± 0.0066,1.002 ± 0.0072
O=C1NCCc2[nH]c(-c3ccncc3)cc21,1.02 ± 0.015,0.0894 ± 0.0076,0.9933 ± 0.0072,0.145 ± 0.006,0.916 ± 0.016,0.0151 ± 0.0021
C[C@]12C[C@H](O)[C@H]3[C@@H](CCC4=CC(=O)CC[C@@]43C)[C@@H]1CC[C@@H]2C(=O)CO [Corticosterone],1.02 ± 0.011,1.02 ± 0.03,1.01 ± 0.01,1.01,0.98 ± 0.015,0.949 ± 0.022
COC(=O)C1=C(C)NC(C)=C([N+](=O)[O-])C1c1ccccc1C(F)(F)F (racemic),0.99 ± 0.0072,0.942 ± 0.02,0.9753 ± 0.0031,0.9355 ± 0.00071,0.962 ± 0.01,0.947 ± 0.011
O=C(/C=C/c1ccc(O)c(O)c1)c1ccc(O)cc1O [Butein],0.726 ± 0.034,0.431 ± 0.021,0.727 ± 0.033,0.594 ± 0.11,0.825 ± 0.035,0.231 ± 0.051
Cc1cc(C)c(NC(=O)C[C@H](CC(=O)O)c2cccc3ccccc23)c(C(=O)N2CCC3(CCCC3)CC2)c1,1.01 ± 0.01,1.06 ± 0.021,1.02,1.09 ± 0.093,0.9983 ± 0.0029,1.01 ± 0.012
O=C(CCCCCCC(=O)Nc1ccccc1)NO [Vorinostat; SAHA],0.928 ± 0.018,1.04 ± 0.04,0.95 ± 0.0036,1.02,0.995 ± 0.015,0.9983 ± 0.0029
"O=C(CCCCCCC(=O)Nc1ccccc1)NO [Vorinostat (SAHA, MK0683)]",0.94 ± 0.017,0.585 ± 0.025,0.959 ± 0.0017,0.955 ± 0.048,1.003 ± 0.0058,0.0617 ± 0.0036
O=C(CCCCCCC(=O)Nc1ccccc1)NO,0.959 ± 0.016,0.569 ± 0.04,0.978 ± 0.013,0.912 ± 0.015,0.969 ± 0.011,0.075 ± 0.0018
COc1ccc2c(c1)c(C1=C(c3c[nH]c4ccccc34)C(=O)NC1=O)cn2CCCN(C)C,0.912 ± 0.028,1.02 ± 0.01,0.928 ± 0.012,0.977 ± 0.0092,1.006 ± 0.0063,1.03
"Nc1c2c(nc3ccccc13)CCCC2 [9-Amino-1,2,3,4-tetrahydroacridine hydrochloride]",0.9893 ± 0.0023,0.991 ± 0.004,0.794 ± 0.33,0.992 ± 0.012,0.986 ± 0.013,0.9903 ± 0.0035
O=c1sn(-c2cccc3ccccc23)c(=O)n1Cc1ccccc1 [Tideglusib],1.01 ± 0.016,1.02 ± 0.029,1.02 ± 0.01,1.03,0.99933 ± 0.00058,1.007 ± 0.0058
COc1cc2/c(=N/c3ccc(Br)cc3F)nc[nH]c2cc1OCC1CCN(C)CC1 [Vandetanib],0.894 ± 0.018,0.721 ± 0.021,0.902 ± 0.031,0.825 ± 0.015,0.915 ± 0.016,0.752 ± 0.014
COc1cc2/c(=N/c3ccc(Br)cc3F)nc[nH]c2cc1OCC1CCN(C)CC1 [Vandetanib (Zactima)],0.84 ± 0.022,0.653 ± 0.023,0.8763 ± 0.0087,0.722 ± 0.022,0.901 ± 0.0096,0.726 ± 0.029
CCN(CC)C(=S)SSC(=S)N(CC)CC [Tetraethylthiuram disulfide],1.017 ± 0.0058,1.027 ± 0.0058,1.05 ± 0.038,1.02 ± 0.017,0.708 ± 0.07,0.943 ± 0.13
C=C[C@@]1(C)CC(=O)[C@]2(O)[C@@]3(C)[C@@H](O)CCC(C)(C)[C@@H]3[C@H](O)[C@H](OC(C)=O)[C@@]2(C)O1 [Forskolin],1.01,,1.01,1.04,,
O=C(O)C(Cc1c[nH]c2ccccc12)N1C(=O)c2ccccc2C1=O (stereo not drawn),0.9963 ± 0.0032,1.01 ± 0.022,0.986 ± 0.019,0.973 ± 0.058,1.006 ± 0.0063,1.013 ± 0.0058
Cc1nc(N=Nc2cc([N+](=O)[O-])ccc2Cl)c(COP(=O)(O)O)c(C=O)c1O [MRS 2211 sodium salt hydrate],1.003 ± 0.0061,1.023 ± 0.0058,0.9933 ± 0.0099,0.995 ± 0.036,1.01 ± 0.013,1.006 ± 0.0075
Cn1c(=O)n(-c2ccc(C(C)(C)C#N)cc2)c2c3cc(-c4cnc5ccccc5c4)ccc3ncc21,0.421 ± 0.017,0.496 ± 0.04,0.629 ± 0.0076,0.633 ± 0.071,0.255 ± 0.013,0.408 ± 0.047
Cc1c(F)ccc(C(=O)Nc2cc([N+](=O)[O-])ccc2N2CCN(C)CC2)c1Cl,1.03 ± 0.011,0.987 ± 0.02,1.027 ± 0.0058,1 ± 0.013,0.9957 ± 0.0075,0.9963 ± 0.0047
